# Whole data set: some 33,000 sequences, median “E-score (-0.5 to 0.5)” near -0.054, cut for the highest 2% near 0.39. The list shows a part of the results.
# Molecular target: Ylr278c (UniProt Q05854)
# Test: PBM E-score (8-mer binding enrichment) (E-score (-0.5 to 0.5)); higher = stronger / more preferred TF binding; most listed sequences are background and not binding sites
# Details: protein concentration: 200 nM; construct: GST-DNA-binding domain
# Method: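 Universal 'all 10-mer' protein binding microarrays (Agilent AMADID 015681) probed with GST-tagged S. cerevisiae TFs (full-length or DBD) made by in vitro transcription/translation (PURExpress), about 100-200 nM. Bound TF was detected with fluorescent anti-GST. Each ungapped 8-mer (which stands for itself and its reverse complement) is scored by the PBM enrichment score (E-score), a modified Wilcoxon-Mann-Whitney statistic from -0.5 to +0.5, computed with the Universal PBM Analysis Suite. Scale: above 0.35 generally sequence-specific binding.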
row,Sequence,PBM E-score
1,GCCGCGAC,0.134
2,AATCATCG,0.0946
3,GGGCGACA,0.114
4,TAGAATGA,-0.248
5,ACCAGTCC,0.00728
6,ACTTTTTG,-0.0651
7,GTACTACA,-0.165
8,AGCTACTA,-0.0384
9,GACTTATC,0.0155
10,CACTTGAC,-0.161
11,CGGTCCAC,-0.00962
12,AAGAGCCG,0.297
13,GGGCACGA,-0.12
14,GCCCCGGC,0.259
15,AGAGACGC,0.153
16,CGGTTGAA,0.0521
17,GCTATGCA,-0.228
18,ATCGGAGG,0.426
19,ACATGCGG,0.201
20,AGTGGAGG,-0.0468
21,GTACAGGA,0.045
22,ACGCCGTG,0.217
23,ACTGTAAT,-0.172
24,ATTCTCAC,-0.0477
25,CTAGAGCA,-0.23

row,Sequence,PBM E-score
1,ATCTACTC,0.0592
2,AACAGTGT,-0.268
3,CGCGACAA,0.106
4,AGCCACAT,-0.289
5,CCCATTTA,-0.184
6,CACAAGCC,-0.154
7,CGACGATC,0.0483
8,ACGTCACT,-0.0519
9,CTCACTTC,-0.155
10,GATTTGGC,-0.0757
11,AGCATAGA,-0.211
12,ATGCCCGA,0.0368
13,TAATATTA,0.0599
14,CCTCTCGC,-0.216
15,ATCGCAAT,-0.00053
16,CCACATAA,-0.0284
17,CGGCGCAA,0.214
18,CGTCAAGA,-0.209
19,TAGACCTA,-0.343
20,CTTCTTTC,-0.136
21,GCGCGAGA,0.097
22,GCTTAAGC,-0.0729
23,CTCGGATA,0.215
24,ATGGGGTC,0.0764
25,TGAGGTAA,-0.129

row,Sequence,PBM E-score
1,CGTAAACC,-0.0113
2,CGAGGGCC,0.0992
3,AAAGGAGG,-0.188
4,CAATAATC,0.113
5,ATGATCAT,-0.153
6,GATACACC,0.162
7,AGGCCGGA,0.419
8,ACGAACGT,-0.16
9,CATAGACG,-0.0684
10,GAAGTCTC,-0.0274
11,CGGAAACA,0.371
12,CGTACCAG,-0.0399
13,AGCCGTCA,0.0508
14,TTGGACAA,-0.165
15,ATGTACAT,-0.0958
16,AACCATGG,-0.0811
17,AGCCACGG,-0.0203
18,ATGGTAAT,-0.0733
19,AGATCGTA,-0.16
20,ACGCACGC,0.264
21,CGTAGCCA,-0.247
22,CAGTGCAG,-0.207
23,CTAGGTGA,-0.262
24,GCGCTTGA,0.0827
25,ACTGAAGG,-0.0961

row,Sequence,PBM E-score
1,AAACCTGA,-0.0847
2,ATATTACA,0.0258
3,AATATAAA,0.218
4,AGTCTAGC,-0.16
5,GACATCCC,0.276
6,CTTGGTAA,-0.192
7,CGGTTGGC,0.119
8,GGCAGAAC,0.0664
9,GAATCGTC,-0.0978
10,CTCAACAA,-0.0985
11,ATTCGAGG,-0.131
12,ATCTTTGG,-0.113
13,GATCCTAA,-0.339
14,CCAGAGGG,-0.0435
15,AGATATGG,-0.0654
16,AAAGCCAA,-0.123
17,CCTGTAAA,-0.246
18,CCCTGAAA,-0.193
19,GATCGGGC,0.184
20,CCACGAGC,0.183
21,ACTTTTAA,-0.158
22,AGTTTCCC,0.0739
23,CGCGAAGA,0.171
24,ACTGCGGA,0.312
25,ACCGCGCT,0.138

row,Sequence,PBM E-score
1,AGGAACGA,-0.155
2,CCGACTGC,0.244
3,ACTCAGCT,-0.0555
4,ATCTGCAA,-0.325
5,ACTCTCGC,0.0203
6,CAGACTTC,-0.306
7,GCAGACAA,-0.176
8,AGCACGCC,-0.0283
9,AGGAGGTA,-0.0558
10,AGACCCAC,-0.00095
11,ATTTTAGA,-0.0601
12,GGTCCAAA,0.0394
13,ATGGGTTA,-0.165
14,GGCCCGAA,0.242
15,AGAGAGAT,-0.115
16,CCGCTTCA,0.184
17,GCCACCGA,-0.073
18,AGACCGAC,0.227
19,AGCACTGA,-0.123
20,ACGTTATC,-0.00576
21,AACAGCCT,-0.141
22,ATCCTGAC,-0.122
23,CCCAGGGA,-0.218
24,CGAAATCC,0.292
25,TGGAGTAA,-0.105

row,Sequence,PBM E-score
1,CGCTAACA,-0.0636
2,TCTTGCAA,0.108
3,ATATTTTA,-0.0845
4,CGAGTATA,-0.0728
5,ACATATGC,-0.336
6,ATCAGTAG,-0.213
7,ATCCGACC,0.234
8,ACTGCGCA,0.128
9,AATTACTG,-0.0745
10,ACCCCATC,-0.0967
11,ACAGTTGA,-0.168
12,CATGGACC,-0.125
13,AGGTAAAG,0.0761
14,CCCATAAC,-0.00113
15,AGTTTATA,0.131
16,ATGGCGTC,-0.101
17,AGCTTCCG,0.24
18,CCATGTCG,0.027
19,CGAATTAA,0.02
20,AAACGTGC,-0.116
21,ACAAGCCC,-0.197
22,CCGGACCA,0.369
23,ACTTGCGA,-0.0128
24,AAGTATAT,-0.0709
25,AGCCGGAG,0.455

row,Sequence,PBM E-score
1,AGGATCGA,-0.0864
2,ACAGGCAT,-0.229
3,CCTGAACC,-0.239
4,GTATACAC,-0.133
5,GGCAGCCC,0.0656
6,CCATGTCA,-0.273
7,GAAGGCAC,0.0422
8,CCTTGGAC,-0.158
9,CTTAGTGC,-0.0721
10,GGGGACAC,-0.15
11,AGCAAGCG,0.175
12,GTTGCGCA,-0.0321
13,GTGTCCGA,0.374
14,AAGACCTT,-0.207
15,ATTCCGTC,0.362
16,TGTCCAAA,-0.0727
17,AGGAGGAT,-0.188
18,CACCGGGC,0.304
19,GGGGGTGA,-0.147
20,AACCCACT,0.0973
21,AAGCCTAC,-0.296
22,CCCGCTTC,0.223
